From PMC4336329 (PLoS ONE, 2015) come the findings set out here.

Among all 310,000 compounds or so, about 14,000 (4.5%) showed an effect of 50% or more. The effect is printed as a negative number. Some of the results follow.
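Further: peak tail current of the secondary pulse compared with the same well before compound.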

human ether-à-go-go-related gene (hERG) potassium channel, sequence (Q12809 whole entry, looked up): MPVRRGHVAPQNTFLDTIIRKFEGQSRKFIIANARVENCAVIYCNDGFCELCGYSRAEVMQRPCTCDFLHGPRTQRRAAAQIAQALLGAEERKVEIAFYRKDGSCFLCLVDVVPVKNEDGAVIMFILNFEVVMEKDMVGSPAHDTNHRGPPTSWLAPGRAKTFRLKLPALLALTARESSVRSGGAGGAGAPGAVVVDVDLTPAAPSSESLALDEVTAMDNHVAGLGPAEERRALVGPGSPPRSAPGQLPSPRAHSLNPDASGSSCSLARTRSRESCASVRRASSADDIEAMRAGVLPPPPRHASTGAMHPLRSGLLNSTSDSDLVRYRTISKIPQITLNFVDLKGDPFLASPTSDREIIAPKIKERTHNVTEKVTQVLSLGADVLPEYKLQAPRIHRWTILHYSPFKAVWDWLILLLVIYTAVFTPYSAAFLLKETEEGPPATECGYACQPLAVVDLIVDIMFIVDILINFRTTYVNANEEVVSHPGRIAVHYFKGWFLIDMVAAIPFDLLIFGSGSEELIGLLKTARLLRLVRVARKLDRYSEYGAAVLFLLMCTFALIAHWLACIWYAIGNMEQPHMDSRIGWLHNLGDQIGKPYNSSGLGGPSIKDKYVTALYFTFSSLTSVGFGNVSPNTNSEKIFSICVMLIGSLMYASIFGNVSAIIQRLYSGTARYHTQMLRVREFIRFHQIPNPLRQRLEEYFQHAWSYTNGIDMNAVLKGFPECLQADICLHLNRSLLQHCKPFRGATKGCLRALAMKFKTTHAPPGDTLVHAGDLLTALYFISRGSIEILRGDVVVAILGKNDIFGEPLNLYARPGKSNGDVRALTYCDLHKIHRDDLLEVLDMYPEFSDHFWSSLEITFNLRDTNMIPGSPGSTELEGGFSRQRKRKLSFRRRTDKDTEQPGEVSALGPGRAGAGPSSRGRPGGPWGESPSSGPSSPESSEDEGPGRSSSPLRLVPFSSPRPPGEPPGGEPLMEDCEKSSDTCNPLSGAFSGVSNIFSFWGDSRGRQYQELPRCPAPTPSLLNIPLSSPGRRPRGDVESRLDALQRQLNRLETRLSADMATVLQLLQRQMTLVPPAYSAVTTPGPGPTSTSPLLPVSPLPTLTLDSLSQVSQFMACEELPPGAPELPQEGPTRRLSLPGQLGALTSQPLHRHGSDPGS

The experiment addresses human ether-à-go-go-related gene (hERG) potassium channel (human, UniProt Q12809). In words: primary screen, population patch clamp on CHO cells stably expressing hERG.
Regarding `O=C(COC(=O)c1ccc(O)cc1)Nc1nccs1`, the “hERG current change (%, negative = inhibition) at 10uM” value was determined as 26.1%.

Consider `COC(=O)c1cccc(Nc2ncnc3ccc(C)cc23)c1`, for which the “hERG current change (%, negative = inhibition) at 10uM” value is on record as -20.9%. For `Cc1ccc([N+](=O)[O-])cc1N/C=C1\CCc2ccccc2C1=O`, the “hERG current change (%, negative = inhibition) at 10uM” value is 5.38%. With `Cc1ccc(-c2ccnc3nc(Sc4ncc(C(F)(F)F)cc4Cl)nn23)cc1` the figure was -1.35%; with `Cc1ccc(-n2nc3c(c2NC(=O)c2ccc4c(c2)OCO4)CS(=O)(=O)C3)cc1C`, 1.01%; with `O=C(c1ccc(Cl)cc1)N1CCCC(C(=O)N2CCc3ccccc3C2)C1` (centres unmarked), -17.7%. In the case of `CCOc1ccc(S(=O)(=O)N(CC(=O)N2CCC(C(N)=O)CC2)c2ccc(F)cc2)cc1`, the “hERG current change (%, negative = inhibition) at 10uM” value is given as -49%. In the case of `Cn1cc(/C=C/C(=O)N2CCCC(C(=O)c3cccc(C(F)(F)F)c3)C2)cn1` (centres unmarked), the “hERG current change (%, negative = inhibition) at 10uM” value is -7.54%. Take `CCc1ccccc1NC(=O)c1cc2ncc(Br)cn2n1`: the “hERG current change (%, negative = inhibition) at 10uM” value amounted to 9.22%. As for `CCS(=O)(=O)N1CCC(C(=O)NCc2ccccc2OC)CC1`, the “hERG current change (%, negative = inhibition) at 10uM” value is -0.242%. Regarding `CCCNC(=O)N1CCN(C(=O)NCCC)CC1`, the “hERG current change (%, negative = inhibition) at 10uM” value was 10.7%.

In the case of `Cc1ccc(-n2cc(CNCCN3CCOC3=O)c(-c3ccc(F)cc3)n2)cc1`, the “hERG current change (%, negative = inhibition) at 10uM” value is on record as -63.2%. Turning to `COc1ccc(NS(=O)(=O)c2cccc(C(=O)NNC(=O)c3cncc(Br)c3)c2)cc1`, the “hERG current change (%, negative = inhibition) at 10uM” value is recorded as 2.21%.

With `COc1cccc2nc3cc(C)c(C)cc3nc12`, the “hERG current change (%, negative = inhibition) at 10uM” value is reported as -7.73%. With `Cc1cccc(C)c1NC(=O)C1CCCNC1` (centres unmarked) the figure was -16.9%. As to `CCOC(=O)c1[nH]c(C)c(C(=O)N2CCN(C(=O)OCC)CC2)c1CC`, the “hERG current change (%, negative = inhibition) at 10uM” value turned out to be 8.27%. For `COc1ccc(S(=O)(=O)n2cnc3cc(C)c(C)cc32)cc1C`, the “hERG current change (%, negative = inhibition) at 10uM” value is recorded as 9.01%. Consider `c1cncc(-c2nnc3sc(-c4ccco4)nn23)c1`, for which the “hERG current change (%, negative = inhibition) at 10uM” value was -23.2%. On to `CC(=O)Nc1ccc(NC(=O)c2c(-c3ccccc3)noc2C)cn1`, for which the “hERG current change (%, negative = inhibition) at 10uM” value is 15.9%. In the case of `COc1cc(C(=O)NNC(=O)c2ccc(NC(C)=O)cc2)cc(OC)c1OC`, the “hERG current change (%, negative = inhibition) at 10uM” value worked out at 8.67%.

`CC1CCCN(c2c([N+](=O)[O-])cc(C(=O)O)cc2[N+](=O)[O-])C1` (centres unmarked): the “hERG current change (%, negative = inhibition) at 10uM” value is 9.39%. `CCc1n[nH]c(=O)c2cc3cc(OC)ccc3n12`: the “hERG current change (%, negative = inhibition) at 10uM” value amounted to 6.75%. `COc1cc2c(cc1OC)CN(C(=O)C1CCCN1S(=O)(=O)c1ccc(F)cc1)CC2` (centres unmarked): the “hERG current change (%, negative = inhibition) at 10uM” value was found to be 11.6%. As to `Cc1ccccc1C(CC(=O)c1cccs1)C(C#N)C#N` (centres unmarked), the “hERG current change (%, negative = inhibition) at 10uM” value was found to be 20.2%.

On to `CC(=O)N1CCN(Cc2nc3cc(NC(=O)Cn4nc(C)c5ccccc5c4=O)ccc3n2C)CC1`, for which the “hERG current change (%, negative = inhibition) at 10uM” value was 17.9%. For `CC(C)OCCCNC(=O)c1ccc(CS(=O)(=O)c2cccc(C(F)(F)F)c2)o1` the value was -4.95%; for `COc1cc(OC)cc(C(=O)NNC(=O)CCCOc2ccccc2)c1`, -18.4%; for `CCN(CC)C(=O)C(C)OC(=O)COc1ccc(Cl)cc1C` (centres unmarked), -20.3%. For `Cc1cccc(OCC(O)Cn2c(-n3nc(C)cc3C)nc3c2c(=O)[nH]c(=O)n3C)c1` (centres unmarked) the value was -17.5%. With `COc1ccc(Cl)cc1NC(=O)CN(C)C(=O)CCNC(=O)c1ccccc1OC` the figure was -9.08%; with `Cc1cc(NC(=O)CCC(=O)N(c2ccccc2)C(C(=O)NC2CCCCC2)c2cccs2)no1` (centres unmarked), 4.02%.

Turning to `COc1cc(NC(=O)CSCC(=O)Nc2cc(OC)cc(OC)c2)cc(OC)c1`, the “hERG current change (%, negative = inhibition) at 10uM” value is given as -5.08%. With `CCOC(=O)c1ccccc1Cc1nc2ccccc2c(=O)[nH]1` the figure was -3.92%; with `CCCCN(C(=O)c1ccc(Cl)c(S(=O)(=O)N2CCOCC2)c1)c1c(N)n(CCC)c(=O)[nH]c1=O`, 28.2%; with `Cc1cc(Cl)ccc1NC(=O)C1CCN(S(C)(=O)=O)CC1`, 7.9%. As to `CCOC(=O)C1=C(C)NC2=C(C(=O)CC(C)(C)C2)C1c1cccc(C)n1` (centres unmarked), the “hERG current change (%, negative = inhibition) at 10uM” value is listed as -4.78%.

Regarding `CS(=O)(=O)O.Cc1cccc(/C=C2/C(=O)/C(=C/c3ccccc3C)C3CCC2N3C)c1` (centres unmarked), the “hERG current change (%, negative = inhibition) at 10uM” value was 6.11%. Consider `CCOc1ccc(S(=O)(=O)N(CC)CC(=O)NCc2ccncc2)cc1C`, for which the “hERG current change (%, negative = inhibition) at 10uM” value is listed as -8.61%.

`Nc1nc(SCC(=O)Nc2ccc3c(c2)OCO3)n[nH]1`: the “hERG current change (%, negative = inhibition) at 10uM” value turned out to be 14.7%. As for `Cc1ncsc1C(=O)N1CCCC(C(=O)c2ccc3ccccc3c2)C1` (centres unmarked), the “hERG current change (%, negative = inhibition) at 10uM” value is recorded as -21.6%. In the case of `Cc1cccc(-n2ncc(C#N)c2-n2cccc2)c1`, the “hERG current change (%, negative = inhibition) at 10uM” value is reported as -5.85%.

Consider `CC1CCN(C(=O)c2cc(N3C(=O)C4C5CCC(C5)C4C3=O)ccc2Cl)CC1` (centres unmarked), for which the “hERG current change (%, negative = inhibition) at 10uM” value is given as -11%. For the compound `COC(=O)C1=C(c2ccc(F)cc2OCc2ccccc2)C[C@@H]2CC[C@H]1N2C(=O)N1CCCCC1`, the “hERG current change (%, negative = inhibition) at 10uM” value is given as -9.9%. Turning to `COC(=O)C1=C(C)N(Cc2ccco2)C(=O)N[C@H]1c1ccccc1`, the “hERG current change (%, negative = inhibition) at 10uM” value was 5.72%.
